Screen size: about 48,000 compounds; about 120 (0.25%) were called active. Another 4% or so got no clear call; they are omitted. Calls come from the whole dose curve; as a rule, active = well fitted activation curve with a large enough effect; inconclusive = small, poorly fitted or top-dose-only effect, or another doubt; inactive = no such curve, though single readings can be large or run the other way. Some of the results follow.

This experiment is described as follows: Primary qHTS for Identification of Small Molecule Activators of Huntingtin-Antisense Promoter Activity. Note: nearly all actives have a fitted effect of over 55% in size. Conditions: HEK293 HTT-AS promoter firefly luciferase reporter (activity 0% = vehicle and -100% = no light), 24 h; series mostly up to 57.5 µM; activity change, positive = activation: at the top concentration. In a few lines:
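Luminescence was read after Dual-Glo reagent and a 10 min room-temperature incubation. Values were normalized to vehicle (0% activity) and zero RLU (-100% activity). Reporter HEK293 cells had been exposed to compounds (up to 57.5 uM final) for 24 h.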
(Quantitative high-throughput screening tests each substance at several concentrations.)
For the compound `COc1ccc(C(=O)NC(c2ccccc2Cl)c2cc(Cl)c3cccnc3c2O)cc1` (configuration not stated), the “activity change, positive = activation” value is inactive: -40.6%.
As for `CCOC(=O)c1oc2c(c1C)-c1nn(Cc3cccc(Cl)c3)cc1CC2`, the “activity change, positive = activation” value is inactive: -27.8%.
In the case of `Cc1ccc(OCC(=O)NCC(=O)OCc2cc(=O)n3nc(C(C)C)sc3n2)cc1`, the “activity change, positive = activation” value was inactive: -9.75%.
The value for `CC(C)Oc1ccc(C(=O)N(Cc2ccc(N(C)C)cc2)Cc2ccco2)cc1` was inactive: -25.2%; that for `COc1cc(NC(=O)CN2CCCN(Cc3cccc(F)c3)S2(=O)=O)cc(OC)c1` was inactive: -8.53%.
For the compound `CCOC(=O)c1c(C)oc2nc(C)nc(NCCc3ccc(C)cc3)c12`, the “activity change, positive = activation” value is inactive: -14.2%.
Turning to `CCCc1cc(N2CCN(c3ccccc3F)CC2)n2cnnc2n1`, the “activity change, positive = activation” value was inactive: -20.4%.
Take `CC1=C(C(=O)N2CCCCC2)C(c2ccc(Cl)cc2)n2c(nc3ccccc32)N1` (configuration not stated): the “activity change, positive = activation” value was inactive: -8.88%.
The value for `Cc1ccc(CN2C(=O)c3ccccc3Sc3ccc(C(=O)N4CCOCC4)cc32)cc1` was inactive: -31.1%.
On to `CCOc1ccc(NC(=O)CSc2oc(-c3ccco3)nc2S(=O)(=O)c2ccccc2)cc1`, for which the “activity change, positive = activation” value is inactive: -7.84%.
To `COc1ccc(-c2nc(C)c(CCNC(=O)c3ccc(C(F)(F)F)cc3)s2)cc1OC` belongs inactive: -0.371%; to `Cc1ccc(NC(=O)c2oc3ccc(S(=O)(=O)N(C)C4CCCCC4)cc3c2C)c(C)c1`, inactive: -14.9%; to `CCCNC(=O)c1cc2n(n1)CCCN(Cc1ccc(C)cc1)C2=O`, inactive: 0.176%.
With `CCOc1ccccc1NC(=O)CSc1ncc2c(n1)-c1ccccc1N(CC)S2(=O)=O`, the “activity change, positive = activation” value is inactive: -18.3%.
Consider `COc1ccc(CNCc2ccc(C(=O)O)s2)cc1`, for which the “activity change, positive = activation” value was inactive: -13.2%.
To `O=C(NCCc1ccc(Cl)cc1)c1ccc(Nc2nc3ccccc3n3nnnc23)cc1` belongs inactive: 3.89%; to `Cc1cccc(NC(=O)C(=O)NCCCN2CCOCC2)c1`, inactive: -2.46%; to `COc1ccc(NC(=O)c2nc(SCc3ccc(F)cc3)ncc2Cl)cc1`, inactive: -16.2%.
The value for `CCOc1ccc(NC(=O)c2sc(-n3nc(C)c(CCC(C)C)c3C)nc2C)cc1` was inactive: 7.16%.
For `CCC(C)Nc1nc2c(c(=O)[nH]c(=O)n2C)n1Cc1ccc(F)cc1` (configuration not stated), the “activity change, positive = activation” value is inactive: -4.46%.
As for `Cc1ccc(-n2ncc3c(NCCc4ccc(S(N)(=O)=O)cc4)ncnc32)cc1`, the “activity change, positive = activation” value was inactive: 0%.
As to `CCCCOC(=O)CSc1ncnc2sc3c(c12)CCC(C)C3` (configuration not stated), the “activity change, positive = activation” value is inactive: 9.62%.
Take `OCC(O)CN1CCN(c2ccccc2)CC1` (configuration not stated): the “activity change, positive = activation” value was inactive: -14.5%.
Regarding `C=Cc1ccc(Cn2c(C(=O)O)c(CNCCc3ccco3)c3ccc(C)cc32)cc1`, the “activity change, positive = activation” value is inactive: -36.5%.
As for `COC(=O)c1cc2sccc2n1Cc1nc(-c2cccc(Cl)c2)oc1C`, the “activity change, positive = activation” value is inactive: 21.1%.
To `CC1=C(c2ccc(C)cc2)S(=O)(=O)NC1=NCc1ccccc1Cl` belongs inactive: 2.61%; to `CC(=O)O[C@H]1C[C@@H]2CC[C@H]3[C@H]4C[C@H]([N+]5(C)CCCCC5)[C@@H](OC(C)=O)[C@@]4(C)CC[C@@H]3[C@@]2(C)C[C@H]1[N+]1(C)CCCCC1`, inactive: -7.25%.
To `CCN(C(=O)Cn1c(=O)oc2cc(S(=O)(=O)N3CCCCCC3)ccc21)c1cccc(C)c1` belongs inactive: -8.05%.
For `Cc1cccc(OC(=O)c2snnc2C)c1`, the “activity change, positive = activation” value is inactive: -3.69%.
The value for `Cc1cccc(C)c1Nc1c(-c2ccccn2)nc2ccc(Cl)cn12` was inactive: -19.1%.
Consider `COc1ccc(-c2nc(CSCC(=O)N3CCN(c4ccccc4F)CC3)c(C)o2)cc1`, for which the “activity change, positive = activation” value was inactive: -66.4%.
As to `Cn1cc(S(=O)(=O)N2CCCCCC2)cc1C(=O)NCc1ccc(F)cc1`, the “activity change, positive = activation” value was inactive: -27.2%.
For `CCc1ccccc1NC(=O)COCc1cc(-c2ccco2)on1`, the “activity change, positive = activation” value was inactive: 4.29%.
As to `COc1ccccc1S(=O)(=O)Cc1ccc(C(=O)N2CCN(c3cc(Cl)ccc3C)CC2)o1`, the “activity change, positive = activation” value is inactive: -48.4%.
Regarding `COC(=O)c1c(-c2ccc(Cl)cc2)noc1N1CCN(c2ccccc2OC)CC1`, the “activity change, positive = activation” value was inactive: -34.4%.
Consider `CCOc1ccc2c(c1)c(=O)c(C(=O)c1ccc(CC)cc1)cn2CC(=O)Nc1cccc(Cl)c1`, for which the “activity change, positive = activation” value is inactive: -16.9%.
The value for `Cc1cc(C)c(Cn2c(=O)n(CCC(=O)NCc3ccc4c(c3)OCO4)c(=O)c3ccccc32)c(C)c1` was inactive: -4.36%; that for `CCOc1ccc(OCC)c(NC(=O)C2CCN(S(=O)(=O)c3ccc4c(c3)CC(C)N4C(C)=O)CC2)c1` (configuration not stated) was inactive: -21.9%.
To `Cc1ccc2occ(CC(=O)N(Cc3ccc(Cl)cc3)Cc3ccco3)c2c1` belongs inactive: 5.66%; to `Cc1ccc(N2C(=O)[C@@H]3CSC(c4ccc(Cl)cc4)N3C2=O)cc1` (some centres not stated), inactive: -21.3%.
As to `CCCCn1c(CCCNC(=O)c2cccc(C)c2)nc2ccccc21`, the “activity change, positive = activation” value was inactive: -33.1%.
For the compound `COCCNC(=O)Cn1nc(-c2ccc(C)cc2)c2ccccc2c1=O`, the “activity change, positive = activation” value is inactive: -4.68%.
To `Cc1cccc(NC(=O)c2ccc(CN3CC(=O)N4CCCCC4C3=O)cc2)c1C` (configuration not stated) belongs inactive: -14.9%; to `Cc1nc2cc(-c3cccc(F)c3)nn2c(C)c1CCC(=O)Nc1ccccc1C(N)=O`, inactive: -71.3%.
Turning to `COc1ccc(CNc2nc(-c3ccc(Cl)cc3)cc(C(F)(F)F)n2)cc1`, the “activity change, positive = activation” value was inactive: -33.2%.
Take `COc1cccc(Cn2nnc3c(=O)[nH]c(C4CCCN(C(=O)c5ccccc5Cl)C4)nc32)c1` (configuration not stated): the “activity change, positive = activation” value is inactive: -16.5%.
Consider `COc1ccc2cc(CNc3ccc(C)cc3)c(=O)n(CC(=O)Nc3ccc(C)cc3Cl)c2c1`, for which the “activity change, positive = activation” value is inactive: -7.26%.
As for `CCOc1ccc(NC(=O)CSc2c3c(nc4ccccc24)CCCC3)cc1`, the “activity change, positive = activation” value was inactive: -6.72%.
Regarding `CCN1CCSc2ccc(C(=O)NCc3cccc(Br)c3)cc21`, the “activity change, positive = activation” value is inactive: -16%.
To `CCCCOc1ccccc1C(=O)N(Cc1sccc1C)C1CCS(=O)(=O)C1` (configuration not stated) belongs inactive: -16.1%; to `CC(C)(C)c1ccc(C(=O)N2CCCC(c3nc4c(nnn4Cc4cccc(F)c4)c(=O)[nH]3)C2)cc1` (configuration not stated), inactive: -24.2%.
`Cc1ccc(-c2cn3nc(N4CCCC(C(=O)NCc5ccc(F)cc5)C4)sc3n2)cc1` (configuration not stated): the “activity change, positive = activation” value was inactive: -34%.
Regarding `Cc1cc(C)cc(NC(=O)Cn2c(=O)n(-c3ccc(C)c(C)c3)c(=O)c3oc4ccccc4c32)c1`, the “activity change, positive = activation” value was inactive: -16.8%.
In the case of `COc1ccc(N2CCN(Cc3nc4c(c(=O)n(C)c(=O)n4C)n3C(C)C)CC2)cc1`, the “activity change, positive = activation” value was inactive: -38.4%.
As for `Cc1ccc2nc(CN3CCN(S(=O)(=O)c4ccc(C(C)C)cc4)CC3)oc2c1`, the “activity change, positive = activation” value was inactive: -21.1%.
The value for `CN(C)CCCn1c(-c2ccc(Cl)cc2)csc1=Nc1ccccc1` was inactive: -18.8%; that for `COC(=O)c1ccc(NC(=O)CCn2cnnn2)c(C)c1` was inactive: -4.23%.
For `O=C(c1ccco1)N(Cc1cccs1)c1ccc(F)cc1`, the “activity change, positive = activation” value is inactive: -21.3%.
Turning to `Cc1cc(O)c(C(c2ccccc2)N2CCN(c3ccc(F)cc3)CC2)c(=O)n1Cc1ccco1` (configuration not stated), the “activity change, positive = activation” value was inactive: -10.7%.
For the compound `Cc1ccc(-n2c(CCC(=O)O)ccc2-c2cccs2)cc1Cl`, the “activity change, positive = activation” value is inactive: -0.206%.
`Cc1cccc(OCc2cc(=O)n3c4c(sc3n2)CCCC4)c1C`: the “activity change, positive = activation” value is inactive: 1.33%.
For the compound `CCc1ccccc1NC(=O)c1cc2nc(-c3ccc(Br)cc3)cc(C(F)(F)F)n2n1`, the “activity change, positive = activation” value was inactive: -0.174%.

Values taken from PubChem BioAssay AID1508624 (National Center for Advancing Translational Sciences (NCATS), 2021).
